# The whole screen tested about 270,000 compounds, of which about 5,800 (2.1%) were called active. Inconclusive results, whose numbers are uncertain, are shown with a selection of clear calls. Calls come from the whole dose curve; as a rule, active = well fitted inhibition curve with a large enough effect; inconclusive = small, poorly fitted or top-dose-only effect; inactive = flat fitted curve, though single readings scatter. A potency beside an inconclusive call is a rough fit, not a confirmed value.
# Molecular target: Microtubule-associated protein tau (Homo sapiens) (UniProt P10636)
# UniProt P10636, sequence (P10636 whole entry, looked up): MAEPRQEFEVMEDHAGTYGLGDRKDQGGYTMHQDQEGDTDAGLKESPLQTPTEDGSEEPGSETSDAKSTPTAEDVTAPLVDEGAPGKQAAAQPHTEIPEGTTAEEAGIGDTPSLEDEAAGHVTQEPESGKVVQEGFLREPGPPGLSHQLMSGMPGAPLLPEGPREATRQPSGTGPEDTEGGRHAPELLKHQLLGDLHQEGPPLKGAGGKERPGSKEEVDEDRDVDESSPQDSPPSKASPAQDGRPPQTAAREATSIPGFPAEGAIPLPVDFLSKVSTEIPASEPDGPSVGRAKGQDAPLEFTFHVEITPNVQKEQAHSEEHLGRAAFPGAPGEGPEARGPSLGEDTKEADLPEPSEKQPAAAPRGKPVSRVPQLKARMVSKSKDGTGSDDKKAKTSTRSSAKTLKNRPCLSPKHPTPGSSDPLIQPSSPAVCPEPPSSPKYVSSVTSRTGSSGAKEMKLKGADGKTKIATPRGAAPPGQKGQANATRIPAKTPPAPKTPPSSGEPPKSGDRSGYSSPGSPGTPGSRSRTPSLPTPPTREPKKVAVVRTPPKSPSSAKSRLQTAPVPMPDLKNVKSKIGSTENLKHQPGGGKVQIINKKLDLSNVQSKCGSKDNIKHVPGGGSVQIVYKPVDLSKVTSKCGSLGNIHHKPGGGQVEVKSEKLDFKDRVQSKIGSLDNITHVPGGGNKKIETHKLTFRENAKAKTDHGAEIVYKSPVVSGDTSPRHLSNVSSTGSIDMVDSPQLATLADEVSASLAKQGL
# Assay: qHTS for Inhibitors of Tau Fibril Formation, Thioflavin T Binding; note: nearly all actives have a fitted effect of over 55% in size
# Details: recombinant tau K18 P301L (four-repeat tau fragment), heparin-induced fibrillization, ThT fluorescence; series mostly up to 57.4 µM; activity, negative = inhibition: at the top concentration
# Method in brief: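 K18 P301L tau (15 uM + 0.24 uM Alexa 594-tagged), heparin 20 uM, NaOAc pH 7, 6 h 37 C; ThT 30 uM, 1 h RT, ex 450/em 510 nm.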
# % is set by controls: 0 for no effect and ±100 for the full control effect; potency is the fitted concentration of half-maximal effect; tags give direction and shape of the fitted curve.
SMILES,"activity, negative = inhibition",Potency
Nc1ccc(C(=O)O)cc1,inactive: -2.16%,–
O=C(CSc1c2c(nc3ccccc13)CCC2)Nc1ccc(F)cc1F,–,"inconclusive: 28.2 µM [inhibitor, single point]"
CCN(C(=S)NC(=O)c1ccccc1Br)C1CCCCC1,inactive: -10.6%,–
Cc1ccc(OCCSc2nc(-c3cccs3)nc3cc(=O)[nH]n23)cc1Cl,–,"inconclusive: 35.5 µM [inhibitor, single point]"
CC(C)Cn1nc(NS(=O)(=O)c2ccccc2)c2cc3ccccc3nc21,–,"inconclusive: 20 µM [inhibitor, partial curve, poor fit]"
CCOC(=O)c1c(NC(=O)C2CCCO2)sc(C(=O)OC(C)(C)C)c1C (configuration not stated),inactive: -2.07%,–
COc1cc(NC(=O)c2cccs2)c(OC)cc1NC(=O)CCn1nnc2ccccc21,–,"inconclusive: 39.8 µM [inhibitor, single point]"
COc1cccc(-c2cnc(NCc3cc(Cl)ccc3O)n2C)c1,–,"inconclusive: 20 µM [inhibitor, partial curve]"
COc1cc(-c2cc3n(C)c(C)c(CCC(=O)Nc4ccc(F)cc4)c(=O)n3n2)cc(OC)c1OC,inactive: -6.9%,–
Nc1cccc(Oc2c(F)c(F)c(Oc3cccc(N)c3)c(F)c2F)c1,–,"inconclusive: 1.78 µM [inhibitor, partial curve]"
S=c1[nH]nc(-c2ccco2)n1/N=C/c1ccc(Cl)c(Cl)c1,–,"inconclusive: 25.1 µM [inhibitor, partial curve]"
Cc1nc2scc(C)n2c(=O)c1S(=O)(=O)Nc1ccc(N2CCN(C(=O)C(C)C)CC2)cc1,–,"inconclusive: 39.8 µM [inhibitor, single point]"
CCOc1ccc(/C=C/C(=O)NCCc2ccc(OC)c(OC)c2)cc1,–,"inconclusive: 3.98 µM [inhibitor, full curve]"
CN(C)/C=C1/NC(=S)NC1=O,inactive: -10.6%,–
Cc1ccc(N=Cc2cc(Br)cc(Cl)c2O)cc1,–,active: 17.8 µM
CC1CCCN(C2=C(Cl)C(=O)N(c3cccc(Cl)c3)C2=O)C1 (configuration not stated),–,active: 14.1 µM
CCCCC(=O)NC(=S)Nc1ccc(S(=O)(=O)N2CCCC2)cc1,inactive: -5.2%,–
O=[N+]([O-])c1cc(Cl)cc(/C=N/Nc2nc3ccccc3s2)c1O,–,active: 11.2 µM
Cc1ccc(-n2cc(C(=O)c3ccc4ccccc4c3O)cn2)cc1,–,"inconclusive: 2.51 µM [inhibitor, full curve]"
CCN(CC)c1ccc(NC(=O)COC(=O)/C=C/c2nc3ccccc3s2)cc1,–,"inconclusive: 10 µM [inhibitor, partial curve]"
CCOc1cc(C2C(C(N)=O)=C(C)Nc3ncnn32)cc(Br)c1O (configuration not stated),inactive: -3.33%,–
CSc1ccc(/C=N/N2CCN(Cc3ccccc3Cl)CC2)cc1,–,"inconclusive: 25.1 µM [inhibitor, partial curve]"
COc1ccc(-c2nc(S(=O)(=O)c3ccc(Cl)cc3)c(N3CCCCCC3)o2)cc1,–,"inconclusive: 22.4 µM [inhibitor, single point]"
Cc1ccc(C(=O)NCCSc2c(C)[nH]c3ccccc23)cc1C,–,"inconclusive: 20 µM [inhibitor, partial curve]"

SMILES,"activity, negative = inhibition",Potency
CCOC(=O)C/C(C)=N/NC(=O)CNc1cccc(Cl)c1C,–,"inconclusive: 25.1 µM [inhibitor, partial curve]"
Cc1ccccc1Oc1ncnc2oc(-c3ccccc3)cc12,–,"inconclusive: 35.5 µM [inhibitor, single point]"
COc1ccc(OCCC(=O)c2ccc(OC)cc2)cc1,–,"inconclusive: 3.98 µM [inhibitor, full curve]"
Cc1ccc(CSC2=Nc3ccccc3C3=NC(CCC(=O)NCCc4ccccc4)C(=O)N23)cc1 (configuration not stated),inactive: -17.2%,–
CCCCC(=O)NC(=S)NNC(=O)CC,–,"inconclusive: 22.4 µM [inhibitor, partial curve]"
COC(=O)c1cc2occc2n1Cc1ccc(F)cc1Cl,–,"inconclusive: 31.6 µM [inhibitor, partial curve]"
Cc1ccc(C)c(OCCCC(=O)Nc2ccc(N3CCOCC3)cc2)c1,–,"inconclusive: 2.82 µM [inhibitor, partial curve]"
Cc1cc(/C=C2\SC(=S)NC2=O)c(C)n1-c1ccc(O)cc1,–,active: 7.94 µM
O=C(O)c1ccc(CSc2nnc(-c3ccccc3)n2-c2ccccc2)cc1,inactive: -8.63%,–
CC(C)c1ccc2c(c1)CC[C@H]1[C@](C)(CN)CCC[C@]21C,–,"inconclusive: 39.8 µM [inhibitor, single point]"
CC(C)=C1C2CCC1C(C(=O)Nc1sc(C)c(-c3ccc(C(C)C)cc3)c1C(N)=O)C2C(=O)O (configuration not stated),–,"inconclusive: 28.2 µM [inhibitor, partial curve]"
COc1ccc(-c2coc3cc(O)ccc3c2=O)c(OC)c1O,inactive: -9.67%,–
O=C(NCCNC(=O)C(c1ccccc1)c1ccccc1)c1ccco1,inactive: -7.44%,–
COc1ccc(CCN=Cc2c(C)[nH]n(-c3ccc([N+](=O)[O-])cc3)c2=O)cc1OC,–,"inconclusive: 0.447 µM [inhibitor, full curve]"
CC1CCC(NC(=O)c2ccc3c(c2)N(Cc2ccccc2F)C(=O)c2ccccc2S3)CC1 (configuration not stated),inactive: -10.8%,–
COC(=O)c1[nH]c2cc(OC)ccc2c1N,–,"inconclusive: 28.2 µM [inhibitor, partial curve]"
NC(=O)CSc1nc2ccc(NC(=O)COc3ccccc3)cc2s1,inactive: -11.1%,–
Cc1ccc(CCNC(=O)c2cc3c(s2)-c2ccccc2OC3)cc1,–,"inconclusive: 1.78 µM [inhibitor, partial curve, poor fit]"
O=C(NCc1nnc(SCC(=O)N2CCOCC2)o1)c1ccccc1F,inactive: 0.676%,–
CCN(CC)CC(O)COc1ccccc1C(=O)CCc1ccccc1 (configuration not stated),inactive: 6.1%,–
Cc1ccc(-c2nnc(SCC(=O)CC(=O)Nc3ccccc3)n2C)cc1,–,"inconclusive: 10 µM [inhibitor, partial curve]"
C#CCNC(=O)C1=C[C@@H](C2CC2)[C@H](CCCO)[C@@H](OCC)O1,–,"inconclusive: 0.794 µM [inhibitor, single point]"
O=C(C[n+]1cc(-c2ccc(Cl)cc2)n2c1CCC2)Nc1nc(-c2ccc(F)cc2)cs1,–,"inconclusive: 17.8 µM [inhibitor, partial curve]"
